Toxic doses and inconclusive results are not listed. Certain results were filed several times, with different values. This is not the full list of results. An entry can have further records. The values listed for one entry do not match, cause unknown; some may be repeats, others may stem from another dose, organism or construct than stated.
Test system: P388 leukemia ip, CD2F1 mice, survival T/C
Assay: NCI In Vivo Anticancer Drug Screen. Data for tumor model P388 Leukemia (intraperitoneal) in CD2F1 (CDF1) mice
Details: endpoint: median survival time; dose: 8.0 mg/kg/injection; schedule: Q01DX009 (ip); vehicle: water; higher = longer survival

Question: `COc1cccc2c1C(=O)c1c(O)c3c(c(O)c1C2=O)C[C@@](O)(/C(C)=N/NC(=O)c1ccc(O)cc1)C[C@@H]3OC1CC(N)C(O)C(C)O1` (stereo partly specified) was tested. Which T/C did it give?
Answer: 94 % of control and 181 % of control

— PubChem BioAssay AID330 (DTP/NCI, 2004)
